Measurements published in the supplement of paper PMC12217912.
The list shows a part of the results. Sequences were assembled here from the parent chain. Inactive controls read about 0.05.

B1: TEV protease; numbered along this chain (parent)
chain: MGESLFKGPRDYNPISSSICHLTNESDGHTTSLYGIGFGPFIITNKHLFRRNNGTLVVQSLHGVFKVKDTTTLQQHLVDGRDMIIIRMPKDFPPFPQKLKFREPQREERICLVTTNFQTKSMSSMVSDTSCTFPSGDGIFWKHWIQTKDGQCGSPLVSTRDGFIVGIHSASNFTNTNNYFTSVPKNFMELLTNQEAQQWVSGWRLNADSVLWGGHKVFMVKPEEPFQPVKEATQL

Variants of: B1
Assay: raw area under fraction-flipped curve 0-4 h after induction (AUC4h, not background-subtracted), DNA-recorder readout of cleavage of the substrate (dimensionless); higher = more cleavage of the substrate by the protease variant
Conditions: temperature: 34 °C; time window: 0-4 h after rhamnose induction
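Note: Bxb1 expression induced with 0.2% (w/v) L-rhamnose at OD600 near 0.5, cultures sampled hourly, flipped fraction per protease–substrate barcode pair counted by paired-end Illumina sequencing.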

Variant	area with substrate EELYFQS	area with substrate EFLYFQS	area with substrate EHLYFQS	area with substrate ELLYFQS	area with substrate EQLYFQS	area with substrate ESLYFQS	area with substrate ETLYFQS	area with substrate EGLYFQS	area with substrate EMLYFQS	area with substrate EVLYFQS
MGESLFKGPRDYNPISSSICHLTNESDGHTTSLYGIGFGPFIITNKHLFRRNNGTLVVQSLHGVFKVKDTTTLQQHLVDGRDMIIIRMPKDFPPFPQKLKFREPQREERICLVTTNFQTKSMSSMVSDTSCTFPSGDGIFWKHWIQTKDGQCGSPLVSTRDGFIVGIHSASNFTNTNNYFTSVPKNFMELLTNQQAQQWVSGWRLNADSVLWGGHKVFMVKPEEPFQPVKEATQL [E195Q]	0.113	0.131	0.111	0.0715	0.118	0.107	0.104			
MGESLFKGPRDYNPISSSICHLTNESDGHTTSLYGIGFGPFIITNKHLFRRNNGTLVVQSLHGVFKVKDTTTLQQHLVDGRDMIIIRMPKDFPPFPQKLKFREPQREERICLVTTNFQTKSMSSMVSDTSCTFPSGDGIFWKHWIQTKDGQCGSPLVSTRDGFIVGIHSASNFTNTNNYFTDVPKNFMELLTNQEAQQWVSGWRLNADSVLWGGHKVFMVKPEEPFQPVKEATQL [S182D]	0.0726	0.0776		0.06				0.0682	0.0855	0.0468
MGESLFKGPRDYNPISSSICHLTNESDGHTTSLYGIGFGPFIITNKHLFRRNNGTLVVQSLHGVFKVKDTTTLQQHLVDGRDMIIIRMPKDFPPFPQKLKFREPQREERICLVTTNYQTKSMSSMVSDTSCTFPSGDGIFWKHWIQTKDGQCGSPLVSTRDGFIVGIHSASNFTNTNNYFTSVPKNFMELLTNQEAQQWVSGWRLNADSVLWGGHKVFMVKPEEPFQPVKEATQL [F117Y]	0.147	0.111		0.0673	0.123				0.149	0.0857
MGESLFKGPRDYNPISSSICHLTNESDGHTTSLYGIGFGPFIITNKHLFRRNNGTLVVQSLHGVFKVKDTTTLQQHLVDGRDMIIIRMPKDFPPFPQKLKFREPQREERICLVTTNTQTKSMSSMVSDTSCTFPSGDGIFWKHWIQTKDGQCGSPLVSTRDGFIVGIHSASNFTNTNNYFTSVPKNFMELLTNQEAQQWVSGWRLNADSVLWGGHKVFMVKPEEPFQPVKEATQL [F117T]	0.0943			0.0884				0.118		
MGESLFKGPRDYNPISSSICHLTNESDGHTTSLYGIGFGPFIITNKHLFRRNNGTLVVQSLHGVFKVKDTTTLQQHLVDGRDMIIIRMPKDFPPFPQKLKFREPQREERICLVTTNFQTKSMSSMVSDTSCTFPSGDEIFWKHWIQTKDGQCGSPLVSTRDGFIVGIHSASNFTNTNNYFTSVPKNFMELLTNQEAQQWVSGWRLNADSVLWGGHKVFMVKPEEPFQPVKEATQL [G138E]	0.0695				0.113					
MGESLFKGPRDYNPISSSICHLTNESDGHTTSLYGIGFGPFIITNKHLFRRNNGTLVVQSLHGVFKVKDTTTLQQHLVDGRDMIIIRMPKDFPPFPQKLKFREPQREERICLVTTNFQTKSMSSMVSDASCTFPSGDGIFWKHWIQTKDGQCGSPLVSTRDGFIVGIHSASNFTNTNNYFTSVPKNFMELLTNQEAQQWVSGWRLNADSVLWGGHKVFMVKPEEPFQPVKEATQL [T129A]	0.132	0.0999		0.0891	0.116		0.0886		0.0887	
MGESLFKGPRDYNPISSSICHLTNESDGHTTSLYGIGFGPFIITNKHLFRRNNGTLVVQSLHGVFKVKDTTTLQQHLVDGRDMIIIRMPKDFPPFPQKLKFREPQREERICLVTTNFQTKSMSSMVSDTSCTFPSGDGIFWKHWIQTKDGQCGSPLVSTRDGFIVGIHSASNFTNTNNYYTSVPKNFMELLTNQEAQQWVSGWRLNADSVLWGGHKVFMVKPEEPFQPVKEATQL [F180Y]	0.145			0.0823		0.128	0.127	0.0796	0.0555	0.0913
MGESLFKGPRDYNPISSSICHLTNESDGHTTSLYGIGFGPFIITNKHLFRRNNGTLVVQSLHGVFKVKDTTTLQQHLVDGRDMIIIRMPKDFPPFPQKLKFREPQREERICLVTTNFQTKSMSSMVSDTSCTFPSGDGIFWKHWIQTKDGQCGSPLVSTRDGFIVGIHSASNFTNTNNYFTSVPKNFMELLTNQEAQQWVSGWRQNADSVLWGGHKVFMVKPEEPFQPVKEATQL [L205Q]	0.0871				0.0939					0.0573
MGESLFKGPRDYNPISSSICHLTNESDGHTTSLYGIGFGPFIITNKHLFRRNNGTLVVQSLHGVFKVKDTTTLQQHLVDGRDMIIIRMIKDFPPFPQKLKFREPQREERICLVTTNFQTKSMSSMVSDTSCTFPSGDGIFWKHWIQTKDGQCGSPLVSTRDGFIVGIHSASNFTNTNNYFTSVPKNFMELLTNQEAQQWVSGWRLNADSVLWGGHKVFMVKPEEPFQPVKEATQL [P89I]	0.0983					0.0789		0.0867		0.0455
MGESLFKGPRDYNPISSSICHLTNESDGHTTSLYGIGFGPFIITNKHLFRRNNGTLVVQSLHGVFKVKDTTTLQQHLVDGRDMIIIRMPKDFPPFPQKLKFREPQREERICLVTTNFQTKSMSSMVSDTSCTFPSGDGIFWKHWIQTKDGQCGSPLVSTRDGFIVGIHSASNFTNTNNYFTSVPKNFMELLTNQEAQQWVSGWRLNADSVLWGGYKVFMVKPEEPFQPVKEATQL [H215Y]	0.122		0.0887		0.161	0.0768	0.0847			0.073
MGESLFKGPRDYNPISSSICHLTNESDGHTTSLYGIGFGPFIITNKHLFRRNNGTLVVQSLHGVFKVKDTTTLQQHLVDGRDMIIIRMPKDFPPFPQKLKFREPQREERICLVTTNFQTKSMSSMVSDTFCTFPSGDGIFWKHWIQTKDGQCGSPLVSTRDGFIVGIHSASNFTNTNNYFTSVPKNFMELLTNQEAQQWVSGWRLNADSVLWGGHKVFMVKPEEPFQPVKEATQL [S130F]	0.102	0.0978	0.0944	0.0583	0.0785	0.0808				0.0873

Same assay, conditions: temperature: 34 °C; time window: 0-4 h after rhamnose induction

Variant	area with substrate EKLYFQS	area with substrate ERLYFQS	area with substrate EPLYFQS	area with substrate EILYFQS	area with substrate EWLYFQS	area with substrate EYLYFQS
MGESLFKGPRDYNPISSSICHLTNESDGHTTSLYGIGFGPFIITNKHLFRRNNGTLVVQSLHGVFKVKDTTTLQQHLVDGRDMIIIRMPKDFPPFPQKLKFREPQREERICLVTTNYQTKSMSSMVSDTSCTFPSGDGIFWKHWIQTKDGQCGSPLVSTRDGFIVGIHSASNFTNTNNYFTSVPKNFMELLTNQEAQQWVSGWRLNADSVLWGGHKVFMVKPEEPFQPVKEATQL [F117Y]	0.129	0.0973				
MGESLFKGPRDYNPISSSICHLTNESDGHTTSLYGIGFGPFIITNKHLFRRNNGTLVVQSLHGVFKVKDTTTLQQHLVDGRDMIIIRMPKDFPPFPQKLKFREPQREERICLVTTNTQTKSMSSMVSDTSCTFPSGDGIFWKHWIQTKDGQCGSPLVSTRDGFIVGIHSASNFTNTNNYFTSVPKNFMELLTNQEAQQWVSGWRLNADSVLWGGHKVFMVKPEEPFQPVKEATQL [F117T]			0.0838			
MGESLFKGPRDYNPISSSICHLTNESDGHTTSLYGIGFGPFIITNKHLFRRNNGTLVVQSLHGVFKVKDTTTLQQHLVDGRDMIIIRMPKDFPPFPQKLKFREPQREERICLVTTNFQTKSMSSMVSDTSCTFPSGDEIFWKHWIQTKDGQCGSPLVSTRDGFIVGIHSASNFTNTNNYFTSVPKNFMELLTNQEAQQWVSGWRLNADSVLWGGHKVFMVKPEEPFQPVKEATQL [G138E]	0.104					
MGESLFKGPRDYNPISSSICHLTNESDGHTTSLYGIGFGPFIITNKHLFRRNNGTLVVQSLHGVFKVKDTTTLQQHLVDGRDMIIIRMPKDFPPFPQKLKFREPQREERICLVTTNFQTKSMSSMVSDASCTFPSGDGIFWKHWIQTKDGQCGSPLVSTRDGFIVGIHSASNFTNTNNYFTSVPKNFMELLTNQEAQQWVSGWRLNADSVLWGGHKVFMVKPEEPFQPVKEATQL [T129A]	0.0801	0.0985		0.0952	0.0801	
MGESLFKGPRDYNPISSSICHLTNESDGHTTSLYGIGFGPFIITNKHLFRRNNGTLVVQSLHGVFKVKDTTTLQQHLVDGRDMIIIRMPKDFPPFPQKLKFREPQREERICLVTTNFQTKSMSSMVSDTSCTFPSGDGIFWKHWIQTKDGQCGSPLVSTRDGFIVGIHSASNFTNTNNYYTSVPKNFMELLTNQEAQQWVSGWRLNADSVLWGGHKVFMVKPEEPFQPVKEATQL [F180Y]			0.0857	0.0744	0.115	
MGESLFKGPRDYNPISSSICHLTNESDGHTTSLYGIGFGPFIITNKHLFRRNNGTLVVQSLHGVFKVKDTTTLQQHLVDGRDMIIIRMPKDFPPFPQKLKFREPQREERICLVTTNFQTKSMSSMVSDTSCTFPSGDGIFWKHWIQTKDGQCGSPLVSTRDGFIVGIHSASNFTNTNNYFTSVPKNFMELLTNQEAQQWVSGWRQNADSVLWGGHKVFMVKPEEPFQPVKEATQL [L205Q]	0.0561			0.105		
MGESLFKGPRDYNPISSSICHLTNESDGHTTSLYGIGFGPFIITNKHLFRRNNGTLVVQSLHGVFKVKDTTTLQQHLVDGRDMIIIRMIKDFPPFPQKLKFREPQREERICLVTTNFQTKSMSSMVSDTSCTFPSGDGIFWKHWIQTKDGQCGSPLVSTRDGFIVGIHSASNFTNTNNYFTSVPKNFMELLTNQEAQQWVSGWRLNADSVLWGGHKVFMVKPEEPFQPVKEATQL [P89I]		0.0619	0.0631	0.0654		
MGESLFKGPRDYNPISSSICHLTNESDGHTTSLYGIGFGPFIITNKHLFRRNNGTLVVQSLHGVFKVKDTTTLQQHLVDGRDMIIIRMPKDFPPFPQKLKFREPQREERICLVTTNFQTKSMSSMVSDTSCTFPSGDGIFWKHWIQTKDGQCGSPLVSTRDGFIVGIHSASNFTNTNNYFTSVPKNFMELLTNQEAQQWVSGWRLNADSVLWGGYKVFMVKPEEPFQPVKEATQL [H215Y]	0.0859			0.0744		0.104
MGESLFKGPRDYNPISSSICHLTNESDGHTTSLYGIGFGPFIITNKHLFRRNNGTLVVQSLHGVFKVKDTTTLQQHLVDGRDMIIIRMPKDFPPFPQKLKFREPQREERICLVTTNFQTKSMSSMVSDTFCTFPSGDGIFWKHWIQTKDGQCGSPLVSTRDGFIVGIHSASNFTNTNNYFTSVPKNFMELLTNQEAQQWVSGWRLNADSVLWGGHKVFMVKPEEPFQPVKEATQL [S130F]				0.061		
